Some values that stand alone complete this part of the results.
Target: citrate synthase from D. pimensis (D. pimensis)
Assay: SEC + other: mass photometry; ENrich SEC 650 column, PBS; fractions of 250 µL of polydisperse assemblies analysed by mass photometry

Substance: citrate synthase from D. pimensis (enzyme)
- stoichiometry N (SEC fraction with mostly large complexes): > 8 subunits
- stoichiometry N (almost exclusively dimeric SEC fraction): 2

Reference: publication PMC11615384, “Frequent transitions in self-assembly across the evolution of a central metabolic enzyme” (Nature Communications, 2024)
